Data published in patent US20240360179A1, “STAPLED PEPTIDES AND METHODS THEREOF” (FOG PHARMACEUTICALS, INC., priority 2021, published 2024).

Tests used:
[1] = target: T1, full-length B-Catenin (Uniprot ID P35222) (Homo sapiens, UniProt P35222); experiment: biochemical; format: binding; conditions: beta-Catenin FP IC50 (nM), competition fluorescence polarization
T1 construct: 10 nM full-length B-Catenin (Uniprot ID P35222)
T1 sequence (P35222 1-781): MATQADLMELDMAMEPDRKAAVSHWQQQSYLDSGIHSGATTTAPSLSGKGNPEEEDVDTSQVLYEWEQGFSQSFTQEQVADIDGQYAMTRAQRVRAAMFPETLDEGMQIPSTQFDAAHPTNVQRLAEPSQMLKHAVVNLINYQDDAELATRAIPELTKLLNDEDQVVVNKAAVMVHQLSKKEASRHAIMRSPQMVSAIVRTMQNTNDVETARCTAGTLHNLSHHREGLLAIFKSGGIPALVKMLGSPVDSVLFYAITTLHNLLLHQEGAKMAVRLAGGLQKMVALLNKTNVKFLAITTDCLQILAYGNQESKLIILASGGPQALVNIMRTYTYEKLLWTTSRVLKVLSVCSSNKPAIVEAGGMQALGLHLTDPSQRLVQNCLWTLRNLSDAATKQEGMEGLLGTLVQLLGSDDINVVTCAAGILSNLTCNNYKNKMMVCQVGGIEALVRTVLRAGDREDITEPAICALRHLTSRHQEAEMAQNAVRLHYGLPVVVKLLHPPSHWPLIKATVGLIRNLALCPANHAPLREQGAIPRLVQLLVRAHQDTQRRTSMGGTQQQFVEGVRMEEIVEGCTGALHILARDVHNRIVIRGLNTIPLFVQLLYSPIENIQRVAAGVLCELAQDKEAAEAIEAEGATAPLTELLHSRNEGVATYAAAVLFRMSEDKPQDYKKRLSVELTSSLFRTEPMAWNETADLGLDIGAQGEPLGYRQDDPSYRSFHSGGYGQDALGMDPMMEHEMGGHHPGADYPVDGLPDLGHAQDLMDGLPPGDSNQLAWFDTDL

[2] = target: T2, beta-catenin/TCF4 interaction (Homo sapiens, UniProt P35222); experiment: cell-based; conditions: NanoBRET Abs IC50 (uM)
T2 construct: host or cells: HEK293
T2 sequence (P35222 1-781): T1 sequence (P35222 1-781)

| IC50 [1] | IC50 [2] | Structure (SMILES) |
| --- | --- | --- |
| 50 to 200 nM | > 10 µM | CC(=O)N1CCC[C@@]1(C)C(=O)N[C@@H](CC(=O)O)C(=O)N[C@@H](CC(C)(C)C)C(=O)N[C@]1(C)CCCCCCCCOC(=O)N2CC[C@@]3(C2)NC(=O)[C@H](CCCCNC(=O)CC[C@@H](C(=O)N[C@@H](C)C(N)=O)NC(=O)[C@H](Cc2csc4ccccc24)NC(=O)[C@H](Cc2ccsc2)NC3=O)NC(=O)[C@H](Cc2ccccc2)NC(=O)[C@H](C)NC(=O)C(C)(C)NC(=O)[C@H](CN(CC(=O)O)CC(F)(F)F)NC(=O)[C@H](CC(=O)O)NC1=O (relative stereo) [I-240, Ac-MePro-Asp-Npg-R5-Asp-TfeGA-Aib-Ala-Phe-Lys*3-PyrS2-3Thi-BztA-GlnR*3-Ala-NH2] |
| < 50 nM | > 10 µM | CC(=O)N1CCC[C@@]1(C)C(=O)N[C@@H](CC(=O)O)C(=O)N[C@@H](CC(C)(C)C)C(=O)N[C@]1(C)CCCCCCCCOC(=O)N2CC[C@@]3(C2)NC(=O)[C@H](CCCCNC(=O)CC[C@@H](C(=O)N[C@@H](C)C(N)=O)NC(=O)[C@H](Cc2csc4ccccc24)NC(=O)[C@H](Cc2ccsc2)NC3=O)NC(=O)[C@H](Cc2ccccc2)NC(=O)[C@H](C)NC(=O)[C@H](C)NC(=O)[C@H](Cc2cccc(C(=O)O)c2)NC(=O)[C@H](CC(=O)O)NC1=O (relative stereo) [I-236, Ac-MePro-Asp-Npg-R5-Asp-3COOHF-Ala-Ala-Phe-Lys*3-PyrS2-3Thi-BztA-GlnR*3-Ala-NH2] |
| < 50 nM | > 10 µM | CC(=O)N1CCC[C@@]1(C)C(=O)N[C@@H](CC(=O)O)C(=O)N[C@@H](CC(C)(C)C)C(=O)N[C@]1(C)CCCCCCCCOC(=O)N2CC[C@@]3(C2)NC(=O)[C@H](CCCCNC(=O)CC[C@@H](C(=O)N[C@@H](C)C(N)=O)NC(=O)[C@H](Cc2csc4ccccc24)NC(=O)[C@H](Cc2ccsc2)NC3=O)NC(=O)[C@H](Cc2ccccc2)NC(=O)[C@H](C)NC(=O)C(C)(C)NC(=O)[C@H](Cc2cccc(C(=O)O)c2)NC(=O)[C@H](CC(=O)O)NC1=O (relative stereo) [I-234, Ac-MePro-Asp-Npg-R5-Asp-3COOHF-Aib-Ala-Phe-Lys*3-PyrS2-3Thi-BztA-GlnR*3-Ala-NH2] |
| 200 to 750 nM | > 10 µM | CC(=O)N1CCC[C@@]1(C)C(=O)N[C@@H](CC(=O)O)C(=O)N[C@@H](CC(C)(C)C)C(=O)N[C@]1(C)CCCCCCCCOC(=O)N2CC[C@@]3(C2)NC(=O)[C@H](CCCCNC(=O)CC[C@@H](C(=O)N[C@@H](C)C(N)=O)NC(=O)[C@H](Cc2csc4ccccc24)NC(=O)[C@H](Cc2ccsc2)NC3=O)NC(=O)[C@H](Cc2ccccc2)NC(=O)[C@H](C)NC(=O)[C@H](C)NC(=O)[C@H](CN(CC(=O)O)CC(F)(F)F)NC(=O)[C@H](CC(=O)O)NC1=O (relative stereo) [I-242, Ac-MePro-Asp-Npg-R5-Asp-TfeGA-Ala-Ala-Phe-Lys*3-PyrS2-3Thi-BztA-GlnR*3-Ala-NH2] |
| 50 to 200 nM | > 10 µM | CC(=O)N1CCC[C@@]1(C)C(=O)N[C@@H](CC(=O)O)C(=O)N[C@H](C(=O)N[C@]1(C)CCCCCCCCOC(=O)N2CC[C@@]3(C2)NC(=O)[C@H](CCCCNC(=O)CC[C@@H](C(=O)N[C@@H](C)C(N)=O)NC(=O)[C@H](Cc2csc4ccccc24)NC(=O)[C@H](Cc2ccsc2)NC3=O)NC(=O)[C@H](Cc2ccccc2)NC(=O)[C@H](C)NC(=O)C(C)(C)NC(=O)[C@H](CN(CC(=O)O)CC(F)(F)F)NC(=O)[C@H](CC(=O)O)NC1=O)C(C)C (relative stereo) [I-243, Ac-MePro-Asp-Val-R5-Asp-TfeGA-Aib-Ala-Phe-Lys*3-PyrS2-3Thi-BztA-GlnR*3-Ala-NH2] |
| 50 to 200 nM | > 10 µM | CCCC[C@H](NC(=O)[C@H](CC(=O)O)NC(=O)[C@]1(C)CCCN1C(C)=O)C(=O)N[C@]1(C)CCCCCCCCOC(=O)N2CC[C@@]3(C2)NC(=O)[C@H](CCCCNC(=O)CC[C@@H](C(=O)N[C@@H](C)C(N)=O)NC(=O)[C@H](Cc2csc4ccccc24)NC(=O)[C@H](Cc2ccsc2)NC3=O)NC(=O)[C@H](Cc2ccccc2)NC(=O)[C@H](C)NC(=O)C(C)(C)NC(=O)[C@H](CN(CC(=O)O)CC(F)(F)F)NC(=O)[C@H](CC(=O)O)NC1=O (relative stereo) [I-244, Ac-MePro-Asp-nLeu-R5-Asp-TfeGA-Aib-Ala-Phe-Lys*3-PyrS2-3Thi-BztA-GlnR*3-Ala-NH2] |
| < 50 nM | > 10 µM | CCCC[C@H](NC(=O)[C@H](CC(=O)O)NC(=O)[C@]1(C)CCCN1C(C)=O)C(=O)N[C@]1(C)CCCCCCCCOC(=O)N2CC[C@@]3(C2)NC(=O)[C@H](CCCCNC(=O)CC[C@@H](C(=O)N[C@@H](C)C(N)=O)NC(=O)[C@H](Cc2csc4ccccc24)NC(=O)[C@H](Cc2ccsc2)NC3=O)NC(=O)[C@H](Cc2ccccc2)NC(=O)[C@H](C)NC(=O)C(C)(C)NC(=O)[C@H](Cc2cccc(C(=O)O)c2)NC(=O)[C@H](CC(=O)O)NC1=O (relative stereo) [I-238, Ac-MePro-Asp-nLeu-R5-Asp-3COOHF-Aib-Ala-Phe-Lys*3-PyrS2-3Thi-BztA-GlnR*3-Ala-NH2] |

| Structure (SMILES) | IC50 [1] | IC50 [2] |
| --- | --- | --- |
| CC(=O)N1CCC[C@@]1(C)C(=O)N[C@@H](CC(=O)O)C(=O)N[C@H](C(=O)N[C@]1(C)CCCCCCCCOC(=O)N2CC[C@@]3(C2)NC(=O)[C@H](CCCCNC(=O)CC[C@@H](C(=O)N[C@@H](C)C(N)=O)NC(=O)[C@H](Cc2csc4ccccc24)NC(=O)[C@H](Cc2ccsc2)NC3=O)NC(=O)[C@H](Cc2ccccc2)NC(=O)[C@H](C)NC(=O)C(C)(C)NC(=O)[C@H](Cc2cccc(C(=O)O)c2)NC(=O)[C@H](CC(=O)O)NC1=O)C(C)C (relative stereo) [I-237, Ac-MePro-Asp-Val-R5-Asp-3COOHF-Aib-Ala-Phe-Lys*3-PyrS2-3Thi-BztA-GlnR*3-Ala-NH2] | < 50 nM | > 10 µM |
